# Source: the supplement of paper PMC11417369
# ± gives the standard deviation of the averaged measurements. This is one part of the list.
# System: PfAP2-I AP2 domain 3 (GST-tagged)
# Test: gcPBM binding intensity (ln(normalized median fluorescence intensity)); higher = stronger DNA binding
# Summary of the method: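 DNA-binding domains from P. falciparum, fused to GST and produced in E. coli, were put on an Agilent 4 × 180k double-stranded probe array for 1 h in 1× PBS holding 1% milk, 0.2 mg/ml BSA, 0.5% salmon testes DNA and 0.03% Triton X-100. Probes were primer-extended, 36 bp long and drawn from intergenic genomic regions, with negative controls included. After Alexa488 anti-GST antibody detection and a 488 nm scan, binding intensity was set as the highest Masliner-normalised natural-log median intensity across replicate spots of either probe orientation.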
row,Sequence,gcPBM binding intensity (ln)
1,TTCTATTTTTTAAAAGTGCATATTATAAATATATAT,9.63 ± 0.11
2,GAATAATCCAAACACACACACACACCCGAATAAATA [CACACA_site482],8.21 ± 0.028
3,GAAATCTAAATAGAAACACACATATATAAATAAATA [CACACA_site7762],7.41 ± 0.59
4,TAGTATTTATATGTTATATATATAAAATAATACAGT [XGTACX_negctrl_site571],7.75 ± 0.59
5,TATATAGAATTATATGCATGTTCAAAAAAATACAAC [TGCATGCA_site431],8.01 ± 0.47
6,ATATCTAATAAAAATACACACACATATGATTTGTGA [CACACA_site8558],7.53 ± 0.38
7,TATTTTTATTTATAACGTACGAAAAATGTATATAAT [XGTACX_site703],7.96 ± 0.35
8,GGTGTATGTTAAAGGAGTACATATATATATATATAT [XGTACX_site7727],9.36 ± 0.45
9,CATACACATTTCATATGTACATAGATTGAAGGGAAG [XGTACX_site116],7.74 ± 0.5
10,TTTTATATATAATTCACACAAAAAAGATACATAAGA [CACACA_site5332],8.01 ± 0.51
11,TATATAAAAATATGTTGTACGCATTTATAAATATAT [XGTACX_site3758],7.84 ± 0.25
12,ATTTTTTTTTTTTTTTTTTTTTTTTTTGAATTCACA [CACACA_negctrl_site982],7.66 ± 0.54
13,TAAGCAAAAATAATTACACACAAATTTATAAAAAAT [CACACA_site3377],7.58 ± 0.64
14,ATAAAAATATAATTGAGTACATATGAATAGTCCTAT [XGTACX_site6281],7.58 ± 0.46
15,ATTTTGTTTTTTTTTGCACACCATAAGGAGTGTAGG [CACACA_site1414],9.715 ± 0.035
16,ACAACACATATTCATCGTACATGTATTAGGAAGACA [XGTACX_site1859],7.83 ± 0.58
17,TCATATATTTTATACATACACACATATATATATTTT [CACACA_site3941],7.87 ± 0.53
18,ACGTTATACACAGTACGTACATAACTATCTAAATGT [XGTACX_site5068],8.02 ± 0.47
19,TGGAGGTCAGTTCACAGTACCCAGGAAATCTGCGGA [XGTACX_site2556],8.3 ± 0.93

row,Sequence,gcPBM binding intensity (ln)
1,TATAACATAGGACACACACACATACATACACAAAAA [CACACA_site5062],8.125 ± 0.078
2,TTCACTTTTTTTTTTTTTTTTTTTTTTTTTTTTATT [GTGCAC_negctrl_site350],7.64 ± 0.52
3,ATGCATAATATACTCTTACACACCATTTCTATATAC [CACACA_site1461],8.29 ± 0.53
4,AAAAAAAAAAAACACACACACACACCCACCCATACA [CACACA_site2859],8.29 ± 0.69
5,TTTACAACATCAAAATGTACGCATTATTATTATTAA [XGTACX_site3017],7.68 ± 0.25
6,TGTGTATAAATATACACACACATATAAATATTTTAA [CACACA_site7005],7.62 ± 0.31
7,TATTTAAAAAATAATACACACATAATATAACAAAAT [CACACA_site3174],8.16 ± 0.46
8,ACATATAATATAAATTGTACATATAAATATATTATT [XGTACX_site4268],7.66 ± 0.44
9,AAAAAAAAAAAAAAATATATATATATATACATACAT [CACACA_negctrl_site317],8.23 ± 0.64
10,TTTTTCTTTTTTTCTTTTTTTATAAAACTTAATTGT [CACACA_negctrl_site384],7.59 ± 0.52
11,TATTAATTATATTTATGTACATAATCATATTATTAT [XGTACX_site7938],7.66 ± 0.39
12,AGAAATATATATATATATATATATATATATATATAT [TGCATGCA_negctrl_site375],9.62 ± 0.3
13,AGTAACAAAAGAAAAAAATATGCAAACATATATATA [XGTACX_negctrl_site468],7.89 ± 1.1
14,TTCATTTTTTGCTTTCAACACACATACAATATATAT [CACACA_site9369],8.01 ± 0.49
15,GGTATACACAAGTATACACACATATATATATATATA [CACACA_site9063],9.28 ± 0.58
16,ACAAAGTTATAATTCTTGCACTTTAAGGTTCATTTA,8.65 ± 0.42
17,ATAAATATCTAGGGTTCACACATTATATATCTGTAT [CACACA_site5702],7.51 ± 0.61
18,CGTGAATATATGATATGTACTTATAAAAATTTGTGC [XGTACX_site5480],7.83 ± 0.52
19,TTTTCCTCTTAAAATATACACACTGATTTAAGAAAA [CACACA_site3301],7.7 ± 0.49

row,Sequence,gcPBM binding intensity (ln)
1,ACGTAATAAAATAGTTGTACAACTTTTTATAATATA [XGTACX_site4393],8.01 ± 0.32
2,TTTTTTTTTTTTTTTTTTTTTTTTTTGTTCAGGCCT [GTGCAC_negctrl_site143],8.28 ± 0.99
3,TCATAAATATGAAAAAGTACAAAGGTAGATTTTGAA [XGTACX_site4535],7.69 ± 0.4
4,TATATATATATTATATGTACGTATGTATGTATATAT [XGTACX_site6451],8.7 ± 0.35
5,AAACGATTAATGTGTACACACATAGTTATAAACCTA [CACACA_site2110],7.85 ± 0.3
6,TTTTGGATTGAGGACCTTTTTATAGAATTATGTTTT [TGCATGCA_negctrl_site544],7.49 ± 0.66
7,ATATATAATTTTTACACACGCAATAAATATATATAT [CACACA_site4283],8.76 ± 0.25
8,GTTTCCTTAATATTCACACACATATATATAATATAT [CACACA_site1856],8.22 ± 0.54
9,ATGTTATAAGATTTATGTACACACATATACACACCT [XGTACX_site1316],8.35 ± 0.21
10,TTAACATAAATATATACACACCAATGATGGCATTTA [CACACA_site4952],7.51 ± 0.52
11,TATATATAATATATATGTACGTATATATATAATATA [XGTACX_site8383],7.75 ± 0.14
12,TTTATTTTCCAAAGGGTGCACATAGTTGAAACGATA,11.1 ± 0.44
13,AATAAAGCAATAAATACACACATATTTATATTTATA [CACACA_site7390],7.86 ± 0.37
14,GTATACATGCAAATTTTTATTTACAACCCCAAAAAG [XGTACX_negctrl_site255],8.39 ± 0.5
15,TTTTCATAATATACATGTACATATATAAATTATTAA [XGTACX_site5206],7.71 ± 0.37
16,TATTATAATATGCCTTGTACATATAACAAATTTATT [XGTACX_site108],7.72 ± 0.43
17,TTTTTTTCACAAAATACACACAATATATTTTATATC [CACACA_site1138],7.79 ± 0.61
18,TTTATTTATTACTAAAGTACTAAATCATATTATTAT [XGTACX_site2574],7.38 ± 0.4
19,ATGAACAAGTGGCACACACACATTATAACTAATTTA [CACACA_site5731],8.5 ± 0.45
